Drawing on the supplement of paper PMC4604168 (melanoma cell lines), this text covers cell count for twelve compounds.

Test systems include A101D; A2058; A375.
Assay in all cases: cell count relative to DMSO control; melanoma cells; higher = more viable cells
What all share (conditions): library dose: standard library concentration; 72 h

The list shows a part of the results. Many values rest on one well or one pass, so single values are uncertain.
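Further: cells treated in 1,536-well plates, then fixed and DAPI-stained, with nuclei counted from automated high-throughput microscope images.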

Regarding `Cc1cn(-c2cc(NC(=O)c3ccc(C)c(Nc4nccc(-c5cccnc5)n4)c3)cc(C(F)(F)F)c2)cn1` [nilotinib] + C#Cc1cccc(Nc2ncnc3cc(OCCOC)c(OCCOC)cc23)c1 [erlotinib] (first compound 1 µM, partner dose 4 µM), the values for the cell count in the experiment on A101D, in the experiment with A2058 and in the experiment on A375 were 65.6%, 97.4% and 137%, respectively.

Turning to `CC(C)C[C@H](NC(=O)[C@H](Cc1ccccc1)NC(=O)c1cnccn1)B(O)O` [Bortezomib] + O=C(O)[C@@H]1[O][Sb](=[O])([O][Sb]2(=[O])[O][C@H]([C@H](O)CO)[C@H](O)[C@H](C(=O)O)[O]2)[O][C@H]([C@H](O)CO)[C@@H]1O [stibogluconate] (first compound 0.005 µM, partner dose 10 µM), the cell count was 10.1% in the experiment with A101D, 12% in the experiment on A2058 and 74.7% in the experiment with A375.

Consider `Cn1c(=O)n(-c2ccc(C(C)(C)C#N)cc2)c2c3cc(-c4cnc5ccccc5c4)ccc3ncc21` + CCCS(=O)(=O)Nc1ccc(F)c(C(=O)c2c[nH]c3ncc(Cl)cc23)c1F [PLX4720] (first compound 0.02 µM, partner dose 0.4 µM), for which the cell count with A101D stood at 71.1%; in the experiment with A2058, 72.2%; in the experiment with A375, 105%.

With `CC(C)C[C@H](NC(=O)[C@H](Cc1ccccc1)NC(=O)c1cnccn1)B(O)O` [Bortezomib] + C[C@@H]1CCN(C(=O)CC#N)C[C@@H]1N(C)c1ncnc2[nH]ccc12 [CP690550] (first compound 0.005 µM, partner dose 5 µM), the figures for the cell count with A101D, in the experiment with A2058 and in the experiment with A375 were 23.3%, 16.6% and 91.7%, respectively.

For the compound `CC(C)C[C@H](NC(=O)[C@H](Cc1ccccc1)NC(=O)c1cnccn1)B(O)O` [Bortezomib] + Cc1ccc(NC(=O)c2cccc(N(C)C)c2)cc1NC(=O)c1ccc(O)cc1 [ZM336372] (first compound 0.005 µM, partner dose 10 µM), the cell count with A101D was 4.86%; in the experiment on A2058 it was 10.2%; in the experiment on A375 it was 70.9%.

For the compound `Cn1c(=O)n(-c2ccc(C(C)(C)C#N)cc2)c2c3cc(-c4cnc5ccccc5c4)ccc3ncc21` + Clc1ccc(Nc2nnc(Cc3ccncc3)c3ccccc23)cc1 [vatalanib] (first compound 0.02 µM, partner dose 10 µM), the cell count in the experiment on A101D came out at 58.2%; in the experiment with A2058, 51.2%; in the experiment on A375 it was 70.7%.

`Cc1cc(Nc2cc(N3CCN(C)CC3)nc(/C=C/c3ccccc3)n2)n[nH]1` + O=C(O)c1ccc(-c2c[nH]c3ncc(-c4ccccc4)cc23)cc1C1CCCC1 [GSK650394] (first compound 0.2 µM, partner dose 0.8 µM): the cell count with A101D came to 77.5%; in the experiment with A2058 it was 83.6%; with A375, 78.1%.

For the compound `Cc1cc(Nc2cc(N3CCN(C)CC3)nc(/C=C/c3ccccc3)n2)n[nH]1` + CO[C@H]1C[C@@H]2CC[C@@H](C)[C@@](O)(O2)C(=O)C(=O)N2CCCC[C@H]2C(=O)O[C@H]([C@H](C)C[C@@H]2CC[C@@H](OCCO)[C@H](OC)C2)CC(=O)[C@H](C)/C=C(\C)[C@@H](O)[C@@H](OC)C(=O)[C@H](C)C[C@H](C)/C=C/C=C/C=C/1C [everolimus] (first compound 0.2 µM, partner dose 0.1 µM), the figures for the cell count in the experiment with A101D, with A2058 and in the experiment with A375 were 70.5%, 45.5% and 84.1%, respectively.

`COc1ccc(C2=N[C@@H](c3ccc(Cl)cc3)[C@@H](c3ccc(Cl)cc3)N2C(=O)N2CCNC(=O)C2)c(OC(C)C)c1` [Nutlin-3] + COc1cc(Nc2ncc(F)c(Nc3ccc4c(n3)NC(=O)C(C)(C)O4)n2)cc(OC)c1OC [Tamatinib] (first compound 0.5 µM, partner dose 2 µM): the cell count in the experiment on A101D amounted to 31.4%; in the experiment with A2058 it was 67%; in the experiment on A375 it was 81.3%.

Take `CC(C)C[C@H](NC(=O)[C@H](Cc1ccccc1)NC(=O)c1cnccn1)B(O)O` [Bortezomib] + C[C@]1(c2nc3c(C(N)=O)cccc3[nH]2)CCCN1 [Veliparib] (first compound 0.005 µM, partner dose 7 µM): the cell count came to 18.5% in the experiment with A101D, 17.9% with A2058 and 77.8% with A375.

With `CC(C)C[C@H](NC(=O)[C@H](Cc1ccccc1)NC(=O)c1cnccn1)B(O)O` [Bortezomib] + C=C(c1ccc(C(=O)O)cc1)c1cc2c(cc1C)C(C)(C)CCC2(C)C [Bexarotene] (first compound 0.005 µM, partner dose 10 µM), the results for the cell count in the experiment with A101D, in the experiment on A2058 and with A375 were 10.8%, 11% and 77.8%, respectively.

On to `COc1ccc(C2=N[C@@H](c3ccc(Cl)cc3)[C@@H](c3ccc(Cl)cc3)N2C(=O)N2CCNC(=O)C2)c(OC(C)C)c1` [Nutlin-3] + C=CCn1c(=O)c2cnc(Nc3ccc(N4CCN(C)CC4)cc3)nc2n1-c1cccc(C(C)(C)O)n1 [MK1775] (first compound 0.5 µM, partner dose 0.1 µM), for which the cell count was found to be 59.8% with A101D, 75.4% with A2058 and 70% with A375.
